PubChem BioAssay AID1476 (National Center for Advancing Translational Sciences (NCATS), 2009)
In all, about 200,000 compounds went through this assay and about 4,500 (2.2%) were called active. The inconclusive results got no clear call from the source; some entries with a clear call stand among them for comparison. Calls come from the whole dose curve; as a rule, active = well fitted inhibition curve with a large enough effect; inconclusive = small, poorly fitted or top-dose-only effect, or effect the other way; inactive = flat fitted curve, though single readings scatter. Potencies beside an inconclusive call are fits to weak or partial responses and may not hold up.

Target: Cruzipain (Trypanosoma cruzi) (UniProt P25779)
UniProt P25779, sequence (P25779 whole entry, looked up): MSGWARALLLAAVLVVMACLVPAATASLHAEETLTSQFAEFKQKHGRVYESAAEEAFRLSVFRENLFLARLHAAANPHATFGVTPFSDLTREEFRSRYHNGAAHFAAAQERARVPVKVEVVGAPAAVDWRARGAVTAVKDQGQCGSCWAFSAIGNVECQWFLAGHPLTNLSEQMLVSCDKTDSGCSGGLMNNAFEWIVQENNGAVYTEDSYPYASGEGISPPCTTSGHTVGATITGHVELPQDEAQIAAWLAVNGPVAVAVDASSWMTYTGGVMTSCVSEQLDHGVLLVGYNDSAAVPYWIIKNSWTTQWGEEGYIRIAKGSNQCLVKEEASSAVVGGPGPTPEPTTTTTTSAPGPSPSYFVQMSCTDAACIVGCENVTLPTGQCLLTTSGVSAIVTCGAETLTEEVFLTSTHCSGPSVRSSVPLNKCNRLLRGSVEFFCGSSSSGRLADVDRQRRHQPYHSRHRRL
Test: qHTS Assay for Promiscuous and Specific Inhibitors of Cruzain (without detergent); note: nearly all actives have a fitted effect of over 40% in size;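 for max response, negative = inhibition: plate controls were enzyme without inhibitor for no effect and buffer without enzyme for full effect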
Conditions: purified cruzain, Z-FR-AMC fluorescence, no detergent
In short: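 Purified cruzain at 1.5 nM, pre-incubated 15 min with compound at room temperature in 100 mM sodium acetate pH 5.5, 5 mM DTT, 0.00005% Triton X-100. Reaction started with 2 uM Z-FR-AMC; AMC fluorescence increase over 60 s gives rate.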
Potency is the fitted concentration of half-maximal effect; tags give direction and shape of the fitted curve.

Row | SMILES | max response, negative = inhibition | Potency
1 | O=C(CN1C(=O)C2CCCCN2c2ccc(C(=O)N3CCCC3)cc21)NCc1ccccc1F (configuration not stated) | inactive: -3.47% | 
2 | Cc1cc(C)c(S(=O)(=O)N2CCN(c3nc4c(c(=O)n(C)c(=O)n4C)n3C)CC2)c(C)c1 |  | inconclusive: 39.8 µM [activator, single point]
3 | Cc1ccc(N2C(=O)CS(=O)(=O)C23C(=O)N(Cc2ccccc2F)c2ccccc23)cc1Cl (configuration not stated) |  | active: 1.26 µM
4 | CC(C)c1nc2n[nH]c(N)c2c2c1CSC(C)(C)C2 |  | inconclusive: 7.94 µM [inhibitor, single point]
5 | CCC(C(=O)OC)n1nnc2sc(-c3ccccc3)cc2c1=O (configuration not stated) | inactive: -7.27% | 
6 | Cc1cc2nc(C)n3c4ccccc4nc3n2n1 |  | inconclusive: 6.31 µM [activator, single point]
7 | Cc1cc2cc(CCNC(=O)CC(C)(C)C)c(=O)[nH]c2cc1C |  | inconclusive: 31.6 µM [inhibitor, single point]
8 | COc1ccc(C2c3c(-c4ccccc4O)n[nH]c3C(=O)N2CCc2ccccc2)cc1 (configuration not stated) |  | active: 31.6 µM
9 | O=S(=O)(Nc1cccc(-c2ccc(N3CCOCC3)nn2)c1)c1cc(C(F)(F)F)ccc1Cl |  | inconclusive: 39.8 µM [activator, single point]
10 | Cc1ccc(S(=O)(=O)NNC(=S)NC(=O)c2ccc([N+](=O)[O-])cc2)cc1 |  | active: 3.98 µM
11 | Cc1sccc1/C=N/NC(=O)c1cccc2ccccc12 |  | inconclusive: 39.8 µM [inhibitor, single point]
12 | COc1cccc(C(=O)c2sc(Nc3ccc(F)c(Cl)c3)nc2N)c1 | inactive: -28.3% | 
13 | C=CCn1c(COc2cccc(C)c2C)nnc1SCC(=O)N1CCN(c2ccccc2)CC1 |  | inconclusive: 20 µM [activator, single point]
14 | Cc1cc(C)cc(NC(=O)C(=O)NCC(c2cccnc2)N2CCc3ccccc32)c1 (configuration not stated) | inactive: -8.35% | 
15 | CCN(c1ccc(C)cc1C)S(=O)(=O)c1nnc(NC(=O)CC(C)C)s1 | inactive: 7.84% | 
16 | COc1cc(NC(=O)CSc2nc3nc(C)c(Cc4ccccc4)c(C)n3n2)cc(OC)c1 |  | inconclusive: 39.8 µM [activator, single point]
17 | O=C(O)CCC(=O)NCc1ccc2[nH]c3c(c2c1)CCCC3 |  | inconclusive: 31.6 µM [activator, single point]
18 | Cc1cc(=O)[nH]c(N=N/C(=N/Nc2ccc(O)cc2)c2ccccc2)n1 |  | inconclusive: 31.6 µM [activator, single point]
19 | CCOc1ccc(NC(=O)Cn2cc(C(=O)c3ccc(C)c(C)c3)c(=O)c3cc(F)ccc32)cc1 | inactive: -9.33% | 
20 | CSc1nc(-c2ccccc2)[nH]c(=S)c1C(C)=O |  | inconclusive: 6.31 µM [inhibitor, single point]
21 | Cc1ccc(CNC(=O)c2ccc3c(c2)N(Cc2cccc(Cl)c2)C(=O)CS3)cc1 |  | inconclusive: 39.8 µM [inhibitor, single point]

Row | SMILES | max response, negative = inhibition | Potency
22 | CCOC(=O)c1sc(N(Cc2ccccc2)C(=O)COC(=O)c2ccc(O)cc2)nc1C |  | active: 15.8 µM
23 | Cc1cc(C)cc(OCC(=O)Nc2ccc3c4c(cccc24)CC3)c1 |  | inconclusive: 31.6 µM [inhibitor, single point]
24 | COc1ccc(/C=C(\NC(=O)c2cccs2)C(=O)Nc2cccc3ccccc23)cc1OC |  | inconclusive: 39.8 µM [activator, single point]
25 | COc1ccc(Cn2c(C(=O)O)c(CNCCc3ccccc3Cl)c3ccc(C)cc32)cc1 |  | inconclusive: 39.8 µM [inhibitor, single point]
26 | CC(/C=N\Nc1nnc2c(n1)[nH]c1c(C)cccc12)=C\c1ccco1 |  | active: 3.98 µM
27 | COc1cc(OC)c(NC(=S)Nc2cc(Cl)cc(Cl)c2)cc1Cl |  | inconclusive: 39.8 µM [inhibitor, single point]
28 | Cn1c(O)c(N=NC(=O)Cn2c(C(F)(F)F)nc3ccccc32)c2ccccc21 |  | inconclusive: 20 µM [activator, single point]
29 | COc1cc(NC(=O)c2cnn3c(C)cc(C)nc23)c(OC)cc1Cl |  | inconclusive: 31.6 µM [activator, single point]
30 | Cc1cc(C)cc(OCC(=O)Nc2cccc(-c3nc4ccccc4[nH]3)c2)c1 | inactive: -21.2% | 
31 | Cc1ccc(NC(=O)C2CCCN(c3nnc(C)c4c(C)n(-c5ccccc5)nc34)C2)cc1Cl (configuration not stated) | inactive: 3.05% | 
32 | COc1cc(CC(NC(C)=O)C(=O)NC2CCN(c3c(Cc4ccccc4)c(C)nc4ncnn34)CC2)cc(OC)c1 (configuration not stated) |  | inconclusive: 12.6 µM [activator, partial curve]
33 | Cc1c(C)c2cc(Cl)c(O)c(CN3CCN(C)CC3)c2oc1=O |  | inconclusive: 39.8 µM [inhibitor, single point]
34 | CCOC(=O)c1sc2nc3c(SCC(=O)O)cc(C(=O)c4cc(F)ccc4O)cn3c(=O)c2c1C |  | inconclusive: 12.6 µM [activator, partial curve]
35 | CCc1cccc(C)c1Nc1c(-c2ccc(N3CCOCC3)cc2)nc2ncccn12 |  | inconclusive: 39.8 µM [activator, single point]
36 | COc1ccc(OCCn2cc(/C=N/NC(=O)c3ccncc3)c3ccccc32)cc1 |  | inconclusive: 39.8 µM [activator, single point]
37 | Cc1ccc(NC(=O)CSc2nsc(SCC(=O)Nc3ccc(C)cc3C)c2C#N)c(C)c1 |  | active: 10 µM
38 | CN1CCN(c2ncc3ncc(=O)n(C4CC4)c3n2)CC1 |  | inconclusive: 25.1 µM [inhibitor, single point]
39 | CCc1ccc(N2C(=O)CS(=O)(=O)C23C(=O)N(Cc2ccccc2)c2ccccc23)cc1 (configuration not stated) |  | active: 2.51 µM
40 | CC(=O)c1ccc(NC(=O)c2ccn[nH]2)cc1 |  | inconclusive: 1.58 µM [inhibitor, single point]
41 | CCOc1ccc(-c2c(C)nn3c(C)c(C(=O)NCC(C)c4ccccc4)cnc23)cc1OCC (configuration not stated) |  | inconclusive: 25.1 µM [activator, single point]
42 | Cc1ccc([N+](=O)[O-])cc1NC(=O)c1ccc(-c2ccccc2)cc1 |  | active: 12.6 µM
